Laboratory results taken from PubChem BioAssay AID1468 (National Center for Advancing Translational Sciences (NCATS), 2008).
Among all 280,000 compounds or so, about 1,100 (0.39%) were called active. Inconclusive results, whose numbers are uncertain, are shown with a selection of clear calls. Calls follow the shape of the dose curve; as a rule, active = well fitted inhibition curve with a large enough effect; inconclusive = small, poorly fitted or top-dose-only effect, or effect the other way; inactive = flat fitted curve, though single readings scatter. No potency is given beside an inconclusive call; the fits are too rough.

What follows are compounds tested against Microtubule-associated protein tau (Homo sapiens) (UniProt P10636) (assay: qHTS for Inhibitors of Tau Fibril Formation, Fluorescence Polarization). Conditions: K18 P301L tau heparin fibrillization, Alexa594 FP, 6 h; series mostly up to 57.7 µM; activity, negative = inhibition: at the top concentration.
In short: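 Human tau K18 […] P301L fragment, 15 uM unlabeled plus 0.24 uM Alexa 594-labeled tau (final), with compound and 20 uM heparin in 100 mM sodium acetate pH 7; 6 hr at 37 C, then Alexa 594 FP read.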
% is scaled to controls: 0 for no effect and ±100 for the full control effect; potency is read from the fitted curve at half-maximal effect; tags tell the direction and shape of the fitted curve.
Also: nearly all actives have a fitted effect of over 55% in size.

Sequence of UniProt P10636 (P10636 whole entry, looked up, the tested form may be a part): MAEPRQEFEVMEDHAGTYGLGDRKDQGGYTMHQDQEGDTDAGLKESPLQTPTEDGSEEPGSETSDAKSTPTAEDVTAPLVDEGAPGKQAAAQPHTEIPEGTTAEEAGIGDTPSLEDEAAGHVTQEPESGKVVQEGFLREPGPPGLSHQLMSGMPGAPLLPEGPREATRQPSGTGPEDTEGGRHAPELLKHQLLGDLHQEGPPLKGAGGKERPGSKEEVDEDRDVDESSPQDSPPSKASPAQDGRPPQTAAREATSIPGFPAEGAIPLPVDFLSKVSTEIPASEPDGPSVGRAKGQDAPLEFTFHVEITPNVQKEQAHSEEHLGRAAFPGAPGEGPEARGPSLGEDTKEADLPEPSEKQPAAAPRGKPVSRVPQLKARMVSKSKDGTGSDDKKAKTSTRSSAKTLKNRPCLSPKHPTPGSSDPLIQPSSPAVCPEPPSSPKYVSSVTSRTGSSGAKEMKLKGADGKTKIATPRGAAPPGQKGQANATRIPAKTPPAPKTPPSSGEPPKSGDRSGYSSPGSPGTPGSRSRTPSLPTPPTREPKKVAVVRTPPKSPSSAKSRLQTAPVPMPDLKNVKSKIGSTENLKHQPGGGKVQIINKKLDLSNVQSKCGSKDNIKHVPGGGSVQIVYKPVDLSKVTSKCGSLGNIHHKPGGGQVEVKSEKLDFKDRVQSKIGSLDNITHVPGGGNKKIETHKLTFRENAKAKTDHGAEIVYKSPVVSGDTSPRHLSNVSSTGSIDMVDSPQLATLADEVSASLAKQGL

Structure (SMILES)	Potency	activity, negative = inhibition
Cc1ccc(-c2nc3ccccc3c(=O)n2NC(=O)COc2ccccc2)cc1	inconclusive [inhibitor, single point]	–
COc1ccc(-c2nc3cc(NC(=O)c4ccc(C)cc4)ccc3o2)cc1Cl	inconclusive [inhibitor, partial curve]	–
COc1ccc(Cn2c(C(=O)O)c(CNC3CCCCC3)c3ccc(C)cc32)cc1	–	inactive: -0.899%
COC(=O)c1ccc2c(c1)N(Cc1ccccc1)C(=O)c1ccccc1S2(=O)=O	–	inactive: -2.95%
COc1ccc(OC)c(/C=C(\C#N)c2nc(-c3ccc(F)cc3)cs2)c1	inconclusive [inhibitor, partial curve]	–
Nc1nc(N)c2sc3nc(C(F)(F)F)cc(C(F)(F)F)c3c2n1	inconclusive [inhibitor, single point]	–
CCC(=O)N(CC)C1=C(O)c2ccccc2C(=O)C1=O	inconclusive [inhibitor, partial curve, poor fit]	–
O=C(Nc1ccccc1)c1ccc(-c2ccccc2Cl)o1	inconclusive [inhibitor, single point]	–
CCc1ccc(S(=O)(=O)c2nnn3c2nc(NCc2ccccc2)c2cc(Cl)ccc23)cc1	inconclusive [inhibitor, partial curve]	–
O=C(Nc1ccc(Cl)cc1)c1cc(S(=O)(=O)NC2CCCCCC2)ccc1F	inconclusive [inhibitor, partial curve, poor fit]	–
COc1cc(NS(=O)(=O)c2ccc(-c3cc(C)no3)cc2)cc(OC)c1	inconclusive [inhibitor, partial curve]	–
COCCCNCC#CCOc1ccc(OC)cc1	–	inactive: 5.55%
COc1ccc(-c2noc(CSc3nc4ccccc4[nH]3)n2)cc1	–	inactive: -3.89%
COC(=O)C1=C(C)N(c2cc(C)cc(C)c2)/C(=C/c2ccc(O)cc2)C1=O	–	inactive: 1.61%
C=CC(C1=CC(=O)C(OC)=CC1=O)c1ccc(O)cc1 (centres undefined)	inconclusive [inhibitor, single point]	–
Cc1cc2n(n1)CCC(=O)N2Cc1ccc(C(=O)Nc2cccc(C(F)(F)F)c2)cc1	–	inactive: -4.65%
CSc1ccccc1NC(=O)C(=O)c1c[nH]c2ccccc12	active: 10 µM	–
C=C(C)CNC(=S)N1CCN(C(c2ccccc2)c2ccccc2)CC1	inconclusive [inhibitor, partial curve]	–
CCCN1C(=O)/C(=C2/C=Cc3ccccc3N2CC)SC1=S	–	inactive: 1.44%
CCNc1nc(SC(C(C)=O)C(C)=O)nc(N(C)C)n1	–	inactive: 5.82%
CCOC(=O)C(=Cc1cc(=O)c(OC)co1)C(=O)OCC	inconclusive [inhibitor, single point]	–
O=C(/C=C/c1ccc(Cl)cc1Cl)Nc1cccc(S(=O)(=O)NC2=NCCCCC2)c1	inconclusive [inhibitor, partial curve]	–
CCc1cccc(C)c1NC(=O)CCS(=O)(=O)c1ccc2c(c1)oc(=O)n2C	inconclusive [inhibitor, partial curve]	–

Structure (SMILES)	Potency	activity, negative = inhibition
Cc1cccc(Nc2nc(-c3ccncc3)cs2)c1	inconclusive [activator, full curve, poor fit]	–
CCCCCCC#Cc1cncc(C(=O)NNC(=O)Nc2cc(Cl)cc(Cl)c2)c1	inconclusive [inhibitor, partial curve]	–
CC(C)Oc1cccc(C(=O)NC(=S)Nc2cccc(NC(=O)c3ccccc3Cl)c2)c1	inconclusive [inhibitor, full curve, poor fit]	–
COc1ccc(C(=O)/C=C\c2ccc(NC(=O)c3cccs3)cc2)cc1	inconclusive [inhibitor, partial curve, poor fit]	–
CCOc1ccc(Br)cc1S(=O)(=O)Nc1ccc(C(=O)OCC(=O)Nc2ccc(C#N)cc2)cc1	active: 25.1 µM	–
NC(=O)c1ccsc1NC(=O)CSc1nnc2ccccn12	inconclusive [inhibitor, single point]	–
Cc1ccc(NC(=O)CCN2C(=O)c3ccccc3Sc3ncccc32)c(Cl)c1	–	inactive: 5.41%
COc1ccccc1NC(=O)c1sc2nc(C)c(C(=O)Nc3ccc(C)cc3C)c(-c3ccccc3Cl)c2c1N	inconclusive [inhibitor, partial curve]	–
O=C(O)CCC(=O)NNC(=O)c1ccc([N+](=O)[O-])cc1	inconclusive [inhibitor, single point]	–
COc1ccc(NC(=O)C(C(C)C)N2Cc3ccccc3C2=O)cc1 (centres undefined)	–	inactive: 5.83%
CCCCc1nn2c(=O)cc(COC(=O)c3ccccc3C)nc2s1	–	inactive: 0.0763%
O=c1c2ccccc2n(Cc2cccc(Cl)c2)c(=O)n1Cc1ccccc1	inconclusive [inhibitor, single point]	–
COCCc1nn2c(=O)cc(COC(=O)c3ccc(Br)cc3)nc2s1	–	inactive: 3.3%
CN(c1cccc(NC(=O)Nc2ccc(Cl)cc2)c1)S(C)(=O)=O	inconclusive [inhibitor, single point]	–
COc1ccccc1-c1nc(SCC(=O)c2ccc(Cl)cc2)n[nH]1	inconclusive [inhibitor, partial curve, poor fit]	–
Cc1ccc(NC(=O)C(NC2CCCc3ccccc32)c2ccccc2)cc1Cl (centres undefined)	–	inactive: 7.88%
Cc1ccc2cc(C(c3nnnn3Cc3ccccc3)N3CCc4ccccc43)c(=O)[nH]c2c1 (centres undefined)	–	inactive: -0.766%
CC(=O)Nc1ccc(-c2cc(-c3ccc(NC(C)=O)cc3)nc(-c3ccc(NC(C)=O)cc3)n2)cc1	inconclusive [inhibitor, single point]	–
COc1ccc(CCNC(=O)c2ccc(Cn3c(=O)[nH]c4cc(OC)c(OC)cc4c3=O)cc2)cc1OC	inconclusive [inhibitor, full curve]	–
CC(C)Oc1cc(NC(=O)CS(=O)CC(=O)Nc2cccc(C(F)(F)F)c2)c(Cl)cc1Cl (centres undefined)	inconclusive [inhibitor, partial curve]	–
COc1ccc(Sc2nc(-c3ccccc3)ncc2OC)cc1	inconclusive [inhibitor, partial curve, poor fit]	–
O=C(CCC(=O)N1CCN(S(=O)(=O)c2ccc(Cl)cc2)CC1)Nc1ccc(Cl)cc1Cl	inconclusive [activator, single point]	–
COc1cc(NC(=O)C2CCN(c3nc4ccccc4nc3C(F)(F)F)CC2)cc(OC)c1	inconclusive [inhibitor, partial curve]	–

Structure (SMILES)	Potency	activity, negative = inhibition
CN(CC(CC(=O)Nc1nncs1)c1ccccc1)S(=O)(=O)c1ccccc1 (centres undefined)	–	inactive: 1.34%
Cc1ccc(-c2nc(N/N=C/c3cccnc3)c3ccccc3n2)cc1	inconclusive [inhibitor, full curve]	–
COc1ccc(C2(C)NC(=O)N(CC(=O)Nc3ccc4c(c3)OCO4)C2=O)cc1OC (centres undefined)	inconclusive [activator, single point]	–
CC1CCC2(CC1)NC(=O)N(CC(=O)NC(=O)NC1CCCC1)C2=O (centres undefined)	inconclusive [inhibitor, partial curve]	–
Cc1ccc(Cl)cc1N1CCN(C(=O)c2c(C)oc3ncnc(N4CCCCC4)c23)CC1	inconclusive [inhibitor, full curve, poor fit]	–
CCCN(CCC)CCCNC(=O)c1cc2cc3ccc(OC)cc3nc2o1	inconclusive [inhibitor, single point]	–
CCc1cc(C(=O)Nc2sc(C)c(CC)c2C#N)no1	inconclusive [inhibitor, single point]	–
O=C(c1cc(-c2ccncc2)nc2ccc(Br)cc12)N1CCN(c2ccccn2)CC1	inconclusive [inhibitor, single point]	–
CCc1ccccc1NC(=S)N1CCNC(=O)C1CC(=O)OC (centres undefined)	–	inactive: 4.26%
CCCCc1ccc(NC(=O)CC(C)(C)C)cc1	–	inactive: 1.9%
O=C(COC(=O)c1cc([N+](=O)[O-])ccc1NCc1ccccc1Cl)NCC(F)(F)F	inconclusive [inhibitor, partial curve]	–
CCCOc1ccc(CSC(=N)N)cc1C(=O)OC	–	inactive: 0.623%
Cc1cc(NC(=O)Nc2cccc(Cl)c2)n(-c2ccccc2)n1	inconclusive [inhibitor, single point]	–
Cc1ccc(CNc2nc(-c3ccco3)nn2S(=O)(=O)c2ccc3ccccc3c2)cc1	inconclusive [inhibitor, partial curve, poor fit]	–
Cc1ccc(/C=C\c2nccc3c2[nH]c2ccccc23)cc1	–	inactive: -15.3%
c1ccc(Nc2n[nH]nc2-c2ccccc2)cc1	inconclusive [inhibitor, partial curve]	–
O=C(Nc1nc(-c2cccs2)cs1)C1=COCCO1	–	inactive: 7.89%
COc1ccc(NC(=O)c2ccc(NCCCN3CCOCC3)c([N+](=O)[O-])c2)cc1	–	inactive: 13%
CCOC(=O)C1CCN(C(=O)c2ccc3c(c2)OCO3)CC1	–	inactive: -3.56%
Cc1ccc(S(=O)(=O)Nc2cc3c(cc2NCc2ccccc2)n(C)c(=O)n3C)cc1	inconclusive [inhibitor, single point]	–
CC(C)C1C(=O)Nc2ccc(S(=O)(=O)NCCc3ccc(Cl)cc3)cc21 (centres undefined)	inconclusive [inhibitor, single point]	–
Cc1ccccc1CNC(=O)c1oc2c(c1C)-c1[nH]ncc1CC2	inconclusive [inhibitor, partial curve]	–
Cc1ccccc1Nc1nn2c(=O)c3ccc(C(=O)NCCc4ccc(Cl)cc4)cc3nc2s1	inconclusive [inhibitor, single point]	–
